# Experimental data as given in PubChem BioAssay AID504706 (National Center for Advancing Translational Sciences (NCATS), 2011).
# About 200 (0.062%) of roughly 320,000 compounds were called active. This list was built around the results that the source calls inconclusive (neither active nor inactive); the mix of calls is not that of the screen. The call rests on the fitted dose curve; in most records, active means well fitted activation curve with a large enough effect; inconclusive means small, poorly fitted or top-dose-only effect; inactive means no such curve, though single readings can be large or run the other way. Potencies of inconclusive entries are left out as doubtful fits.
# Experiment: qHTS assay for re-activators of p53 using a Luc reporter; further: nearly all actives have a fitted effect of over 45% in size; on activity change, positive = activation: % of control where 0% means no effect
# Conditions: H1299 p53-A138V BP100-luciferase reporter, luminescence, 24 h; series mostly up to 92.2 µM; activity change, positive = activation: at the top concentration
# Procedure, shortened: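 H1299 (p53-null), stable ts p53-A138V + BP100-Luc; 1000 cells/well, Opti-MEM/10% FBS; cpd 4 pt, 1:5; 24 h, 37 deg C, 5% CO2; detection reagent 10 min RT; luminescence.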
# Potency means the concentration at half of the fitted maximal effect; tags describe the fitted curve by direction and shape.
SMILES,Potency,"activity change, positive = activation"
Nc1nc2ccc(NC(=O)c3ccco3)cc2s1,"inconclusive [activator, full curve, poor fit]",–
O=C(CN1C(=O)NC2(CCCCCC2)C1=O)Nc1cccc(F)c1,–,inactive: 1.07%
Fc1ccc(-c2nnc(-c3ccc(Cl)cc3Cl)o2)cc1,"inconclusive [activator, partial curve, poor fit]",–
CC(C)(C)SCCNC(=O)CN1C(=O)c2ccccc2S1(=O)=O,"inconclusive [activator, full curve, poor fit]",–
S=C(NCCc1ccc(Cl)cc1)Nc1ccc(Cl)cc1Cl,"inconclusive [activator, full curve, poor fit]",–
CCCN1C(=O)S/C(=C\c2ccc(N3CCOCC3)cc2C)C1=O,"inconclusive [activator, partial curve, poor fit]",–
Cn1c(C=O)c(C#Cc2ccccc2)c2ccccc21,"inconclusive [activator, single point]",–
O=C(COc1ccc(Cl)cc1Cl)NNC(=S)Nc1ccc(F)cc1,–,inactive: -8.52%
CCC(NC(=O)Cc1c(C)c2cc3c(cc2oc1=O)OC(C)(C)CC3)C(=O)O (stereo not given),"inconclusive [activator, partial curve]",–
COc1ccc(-c2cc3nc(C)cc(C)n3n2)cc1,"inconclusive [activator, partial curve, poor fit]",–
O=C(Nc1nccs1)c1ccc2ccccc2n1,"inconclusive [activator, full curve, poor fit]",–
CCOc1cc(/C=C2\C(=O)ON=C2c2ccccc2)ccc1OC,–,inactive: -1.57%
c1ccc2nc3c(nc2c1)[nH]c1ccccc13,"inconclusive [activator, full curve, poor fit]",–
C=CCN1C(=O)C(=O)N(CC(=O)c2ccc3c(c2)CCCC3)C1=O,"inconclusive [activator, partial curve, poor fit]",–
O=C(c1cnn2ccccc12)N1CCc2ccccc21,"inconclusive [activator, full curve, poor fit]",–
Cc1nc(NC(=O)c2ccccc2)sc1Cc1ccc2c(c1)OCO2,"inconclusive [activator, partial curve, poor fit]",–
O=C(Nc1ccccc1C(=O)NC(Cc1ccc(O)cc1)C(=O)O)c1ccccc1 (stereo not given),–,inactive: 14.7%
CC(C)C[C@H](CO)Nc1nc(Nc2cccc(Cl)c2)c2ncn(C(C)C)c2n1,"inconclusive [activator, partial curve, poor fit]",–
S=c1[nH]nc(-c2cccc(Cl)c2)n1/N=C/c1ccc(-c2ccccc2Br)o1,–,inactive: -1.2%
Cc1cc(=O)oc2cc(OCC(=O)Nc3nccs3)ccc12,"inconclusive [activator, partial curve, poor fit]",–
CC(C)c1nnc(NC(=O)C2CCN(c3nc4ccccc4s3)CC2)s1,"inconclusive [activator, single point]",–
CCc1ccccc1-n1c(SCC(=O)Nc2ccc3c(c2)OCCO3)nc2[nH]ncc2c1=O,"inconclusive [activator, partial curve, poor fit]",–
Cc1nc(NC(=O)CN2CCOCC2)sc1-c1ccccc1,"inconclusive [activator, partial curve, poor fit]",–
CCC(=O)c1c[nH]c(C(=O)NCCc2ccccn2)c1,"inconclusive [activator, single point]",–

SMILES,Potency,"activity change, positive = activation"
C#CCn1cnc2c(oc3ccccc32)c1=O,"inconclusive [activator, partial curve, poor fit]",–
Cc1ccc(OCC(O)Cn2c(N3CCCCC3)nc3c2c(=O)[nH]c(=O)n3C)cc1C (stereo not given),–,inactive: -3.42%
Nc1c(C(=O)Nc2ccc(Cl)c(C(=O)O)c2)sc2nc3c(cc12)CCCC3,–,inactive: 28.1%
CC(=O)c1c(C)[nH]c(C(=O)Nc2ccc(Cl)cc2)c1C,"inconclusive [activator, partial curve, poor fit]",–
O=C(N/N=C/c1cccc(O)c1)c1ccccc1O,"inconclusive [activator, partial curve, poor fit]",–
COc1ccc(-c2csc(N3CCN(C(=O)c4ccccc4)CC3)n2)cc1,–,inactive: -7.75%
CSCCNC(=O)c1ccc2nc(C3CCCCC3)oc2c1,"inconclusive [activator, single point]",–
COC(=O)c1cc(=O)n(Cc2cccs2)c(=Nc2ccccc2)s1,–,inactive: -6.33%
N#Cc1c(N2CCCCC2)nc(N)c2c(N)nc3c(c12)CC(c1ccccc1)O3 (stereo not given),–,inactive: -0.504%
CC1CCN(S(=O)(=O)c2ccc(NC(=O)CN3CCCC3)cc2)CC1,–,inactive: 1.84%
Cc1nn(-c2ccccc2)c(C)c1C(=O)OCC(=O)Nc1ccccc1F,"inconclusive [activator, full curve, poor fit]",–
O/C(=C\c1ccc2ccccc2n1)c1ccncc1,"inconclusive [activator, partial curve, poor fit]",–
COc1ccc(-c2cc(C(=O)NC3CCCC3)no2)cc1,"inconclusive [activator, full curve, poor fit]",–
CCOc1ccc(NC(=O)CSc2nccn2Cc2ccco2)cc1,"inconclusive [activator, partial curve, poor fit]",–
O=C(O)CCCCCN1C(=O)/C(=C\c2ccncc2)SC1=S,"inconclusive [activator, single point]",–
C=CCCO[C@@H]1O[C@@H](C)[C@H](O)C[C@H]1O,–,inactive: 3.05%
CCOC(=O)CNC(=O)c1ccccc1Br,"inconclusive [activator, single point]",–
S=c1[nH]nc(C2CCCCC2)n1/N=C/C(Cl)=C\c1ccccc1,"inconclusive [activator, partial curve, poor fit]",–
CC(C)CCNC(=O)[C@H](CSCc1ccccc1)N1Cc2ccccc2C1=O,–,inactive: -4.42%
C/C(=N/Nc1ccnc2cc(Cl)ccc12)c1ccc(O)cc1,"inconclusive [activator, single point]",–
CN1Cc2c(N3CCOCC3)nc(SCc3ccccc3)c(C#N)c2CC1(C)C,"inconclusive [activator, single point]",–
COc1ccc(C(=O)Oc2c(OC)cc(C(=S)N3CCOCC3)cc2OC)cc1,"inconclusive [activator, single point]",–
CN1Cc2c(N3CCOCC3)nc3sc(C#N)c(N)c3c2CC1(C)C,–,inactive: -4.45%
O=C(Nc1ccc2c(c1)OCCO2)c1cccc(Br)c1,–,inactive: 31.1%

SMILES,Potency,"activity change, positive = activation"
CC(=O)c1cccc(NC(=O)c2cc(=O)[nH]c3ccc(S(=O)(=O)N4CCOCC4)cc23)c1,–,inactive: -8.83%
COc1ccc(-n2ncc3c(NCc4ccc5c(c4)OCO5)ncnc32)cc1,"inconclusive [activator, full curve, poor fit]",–
CN(C)S(=O)(=O)c1ccc(Cl)c(C(=O)Nc2nc3ccccc3[nH]2)c1,–,inactive: 1.49%
COc1ccc(C(=O)Nc2nc3ccccc3[nH]2)cc1OC,"inconclusive [activator, full curve]",–
COc1ccc(C(=O)CN2CCN(S(=O)(=O)c3cccc([N+](=O)[O-])c3)CC2)cc1OC,"inconclusive [activator, single point]",–
CCNc1ccccc(-c2ccc3ccccc3n2)c1=O,"inconclusive [activator, full curve, poor fit]",–
COc1cccc(OCCNC(=O)c2ccc(C)cc2)c1,"inconclusive [activator, single point]",–
COc1ccc(S(=O)(=O)Nc2ccc(C)cc2)cc1N(C)S(=O)(=O)c1ccc(Cl)cc1,–,inactive: -1.02%
Cc1ccc(S(=O)(=O)N2CCCN(C)c3nc4ccccc4nc32)cc1,–,inactive: 0.96%
CC(=O)Nc1cccc(NC(=O)c2ccc(COc3ccccc3)cc2)c1,"inconclusive [activator, full curve, poor fit]",–
CC1CCN(c2ccc(-c3cccc(NC(=O)c4ccco4)c3)nn2)CC1,–,inactive: 14.2%
c1ccc(C2=NNC(=NCc3ccc4c(c3)OCO4)SC2)cc1,"inconclusive [activator, partial curve]",–
C=CCOC(=O)C1C(=O)CC(C)(O)C(C(=O)OCC=C)C1c1ccc(OC)cc1 (stereo not given),"inconclusive [activator, single point]",–
CC1(C(=O)NCCN2CCOCC2)C=CCN1C(=O)c1ccccc1 (stereo not given),"inconclusive [activator, partial curve, poor fit]",–
COc1ccccc1NC(=O)c1c[nH]c2ccccc12,–,inactive: 21.4%
O=C(N/N=C/c1c(O)n(-c2ccc(Cl)cn2)c(=O)c2ccccc12)c1ccncc1,–,inactive: 2.56%
COC(=O)c1c(C)[nH]c(C(=O)/C=C/c2ccccc2F)c1C,"inconclusive [activator, partial curve, poor fit]",–
COc1cccc(C(=O)Nc2nnc(SCC(=O)NC3CC3)s2)c1,"inconclusive [activator, single point]",–
O=C(Cc1ccc(Cl)c(Cl)c1)Nc1ccc(SC(F)F)cc1,"inconclusive [activator, partial curve, poor fit]",–
NC(=O)c1ccccc1OCc1nc2ccccc2s1,"inconclusive [activator, partial curve, poor fit]",–
Cc1ccc(SCCN2CCN(Cc3ccccc3)CC2)cc1,–,inactive: 7.18%
CN(C)c1ccc(C(=O)/C=C/c2ccccc2)cc1,"inconclusive [activator, partial curve, poor fit]",–
